Results taken from patent US20220340635A1, “FUSION PROTEIN FOR TREATMENT OF METABOLIC DISEASE” (ZHEJIANG DOER BIOLOGICS CORPORATION, priority 2019, published 2022).
Where a chain is given by its changes, count along the chain named.

B1: G352L1F6: SEQ ID NO.83: dimeric fusion protein that does not contain the C-terminal sequence of Exendin-4 (protein)
chain: HSQGTFTSDYSKYLDSQAAQDFVQWLLAGGGGGSGGGGSGGGGSA[letters of human IgG4 Fc with S228P N297A (EU numbers) omitted]
modifications: Amino acid sequence of G352L1F6
B2: G402L1F6: SEQ ID NO.86: dimeric fusion protein that does not contain the C-terminal sequence of Exendin-4 (protein)
chain: B1 chain with S16E, Q17E, A28D
modifications: Amino acid sequence of G402L1F6
B3: G232L1F6: SEQ ID NO.82: dimeric fusion protein that does not contain the C-terminal sequence of Exendin-4 (protein)
chain: B1 chain with S16E
modifications: Amino acid sequence of G232L1F6
B4: G382L1F6: SEQ ID NO.84: dimeric fusion protein that does not contain the C-terminal sequence of Exendin-4 (protein)
chain: B1 chain with A28D
modifications: Amino acid sequence of G382L1F6
B5: G395L1F6: SEQ ID NO.85: dimeric fusion protein that does not contain the C-terminal sequence of Exendin-4 (protein)
chain: B1 chain with S16E, Q17E
modifications: Amino acid sequence of G395L1F6
B6: A001L1F6: SEQ ID NO.51: active protein in which natural Glucagon was fused with FC; control (protein)
chain: B1 chain with Q17R, A18R, L27M, A28N, G29T
modifications: Amino acid sequencea of active protein A001L1F6
notes: control

Biological target: T1, human GLP-1R (Homo sapiens, UniProt P43220)
T1 construct: expressed in transfected cells
T1 sequence (P43220 24-463): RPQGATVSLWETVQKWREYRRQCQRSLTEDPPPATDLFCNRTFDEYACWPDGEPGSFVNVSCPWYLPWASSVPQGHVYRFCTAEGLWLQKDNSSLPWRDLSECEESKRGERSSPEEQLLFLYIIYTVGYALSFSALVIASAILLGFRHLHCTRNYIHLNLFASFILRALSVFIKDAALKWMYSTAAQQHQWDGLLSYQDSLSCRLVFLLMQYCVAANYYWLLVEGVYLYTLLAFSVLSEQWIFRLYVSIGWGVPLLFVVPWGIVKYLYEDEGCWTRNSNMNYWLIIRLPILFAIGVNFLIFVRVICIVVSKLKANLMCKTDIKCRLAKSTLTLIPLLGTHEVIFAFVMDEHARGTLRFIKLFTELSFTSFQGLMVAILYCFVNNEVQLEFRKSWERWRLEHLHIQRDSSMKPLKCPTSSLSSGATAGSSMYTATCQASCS
Assay: GLP-1R agonist bioactivity assay, luciferase reporter gene, CHO/GLP-1R cells
Type: cell-based
Conditions: ratio of GLP-1R agonist activity before and after addition of C-terminal extension peptide Cex from Exendin-4
Protocol: The GLP-1R agonist bioactivity assay was carried out using a luciferase reporter gene detection method. The human GLP-1R gene was cloned into mammalian cell expression plasmid pCDNA3.1 to construct a recombinant expression plasmid pCDNA3.1-GLP-1R, and the full-length luciferase gene was cloned into pCRE-EGFP plasmid to replace the EGFP gene to obtain a pCRE-Luc recombinant plasmid. CHO cells were transfected with pCDNA3.1-GLP-1R and pCRE-Luc plasmids at a molar ratio of 1:10. and stably transfected expression strains were selected to obtain recombinant CHO/GLP-1R stably transfected cell strains.
The cells were cultured in a 9-cm cell dish with DMEM/F12 medium containing 10% FBS and 300 μg/ml G418. When the confluence reached about 90%, the supernatant was discarded. The cells were digested in 2 ml trypsin for 3 min and neutralized in 2 ml DMEM/F12 medium before transferring to a 15 ml centrifuge tube. The tube was centrifuged at 1000 rpm for 5 min. Supernatant was discarded and 2 ml DMEM/F12 medium containing 10% FBS and 300 μg/ml G418 was added for resuspension and counting. The cells were diluted to 5×10^5/mL with DMEM/F12 medium containing 10% FBS. Plating 100 μl in each well of a 96-well plate, i.e., 5×10^4 per well. After adherence, the cells were cultured in DMEM/F12 medium containing 0.2% FBS overnight. […] The cells were cultured for 6 h stimulation before detection. The assay is carried out according to the instructions of Lucifersae reporter kit (Ray Biotech, Cat: 68-LuciR-S200).

| Activity ratio a | Molecule |
| --- | --- |
| 219 | B1 |
| 214 | B2 |
| 212 | B3 |
| 234 | B4 |
| 234 | B5 |

Biological target: Recombinant DPP-IV enzyme (Homo sapiens, UniProt P27487)
Sequence (P27487 whole entry, species assumed): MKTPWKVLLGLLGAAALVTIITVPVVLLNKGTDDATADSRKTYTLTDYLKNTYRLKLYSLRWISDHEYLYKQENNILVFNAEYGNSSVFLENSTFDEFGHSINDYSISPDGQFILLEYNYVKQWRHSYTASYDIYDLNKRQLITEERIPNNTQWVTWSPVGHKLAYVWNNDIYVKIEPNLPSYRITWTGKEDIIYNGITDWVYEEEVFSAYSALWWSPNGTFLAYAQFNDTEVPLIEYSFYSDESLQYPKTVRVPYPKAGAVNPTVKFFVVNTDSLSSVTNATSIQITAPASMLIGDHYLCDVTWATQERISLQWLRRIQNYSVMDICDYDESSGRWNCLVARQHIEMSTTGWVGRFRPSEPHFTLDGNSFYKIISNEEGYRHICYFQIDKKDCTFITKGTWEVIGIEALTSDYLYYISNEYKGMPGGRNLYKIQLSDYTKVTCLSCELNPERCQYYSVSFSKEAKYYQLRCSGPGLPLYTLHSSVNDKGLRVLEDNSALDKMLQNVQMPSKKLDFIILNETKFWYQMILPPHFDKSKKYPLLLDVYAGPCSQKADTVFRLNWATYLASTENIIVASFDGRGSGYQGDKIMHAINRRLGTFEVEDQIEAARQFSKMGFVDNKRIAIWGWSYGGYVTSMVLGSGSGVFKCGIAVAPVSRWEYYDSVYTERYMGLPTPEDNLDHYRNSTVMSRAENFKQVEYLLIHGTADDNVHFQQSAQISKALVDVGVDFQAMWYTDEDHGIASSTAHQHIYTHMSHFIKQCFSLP
Assay: DPP-IV enzyme resistance (GCGR bioactivity after DPP-IV treatment)
Type: in vitro ADME
Conditions: not given
Protocol: The purified fusion protein was dissolved in 10 mM of HEPES buffer (containing 0.05 mg/ml BSA) to a final concentration of 5 μM. Recombinant DPP-IV enzyme (final concentration of 10 nM) was added and incubated at 37° C. for 24 hours before detection of GCGR bioactivity. Activity retention rate=(activity after DPP-IV enzyme treatment/activity before DPP-IV enzyme treatment)×100%.

| Molecule | Resistance to DPP-IV (in words) |
| --- | --- |
| B6 | neither A001L1F6 (SEQ ID NO.51) nor A012L1F6 (SEQ ID NO.52) showed obvious signs of resistance to DPP-IV |
